Measured values published in PubChem BioAssay AID588342 (National Center for Advancing Translational Sciences (NCATS), 2011).
Hit rate of the full screen: of about 360,000 compounds, about 25,000 (6.9%) were called active. Inconclusive results, whose numbers are uncertain, are shown with a selection of clear calls. Calls follow the shape of the dose curve; as a rule, active = well fitted inhibition curve with a large enough effect; inconclusive = small, poorly fitted or top-dose-only effect; inactive = flat fitted curve, though single readings scatter. A potency beside an inconclusive call is a rough fit, not a confirmed value.

The molecules below were run against Luciferin 4-monooxygenase (Photinus pyralis) (UniProt P08659) (assay: qHTS profiling assay for firefly luciferase inhibitor/activator using purifed enzyme and Km concentrations of substrates (counterscreen for miR-21 project)). Conditions: purified FLuc, luminescence inhibition; series mostly up to 57.5 µM.
Method in brief: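 Biochemical qHTS of compounds, final roughly 60 µM downward over six points, against 10 nM purified firefly luciferase using Km concentrations of substrates (10 uM D-luciferin, 10 uM ATP) in Tris acetate pH 7.5 buffer; luminescence output.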
Also: nearly all actives have a fitted effect of over 55% in size.
Potency is read from the fitted curve at half-maximal effect; tags tell the direction and shape of the fitted curve.

Sequence of UniProt P08659 (P08659 whole entry, looked up): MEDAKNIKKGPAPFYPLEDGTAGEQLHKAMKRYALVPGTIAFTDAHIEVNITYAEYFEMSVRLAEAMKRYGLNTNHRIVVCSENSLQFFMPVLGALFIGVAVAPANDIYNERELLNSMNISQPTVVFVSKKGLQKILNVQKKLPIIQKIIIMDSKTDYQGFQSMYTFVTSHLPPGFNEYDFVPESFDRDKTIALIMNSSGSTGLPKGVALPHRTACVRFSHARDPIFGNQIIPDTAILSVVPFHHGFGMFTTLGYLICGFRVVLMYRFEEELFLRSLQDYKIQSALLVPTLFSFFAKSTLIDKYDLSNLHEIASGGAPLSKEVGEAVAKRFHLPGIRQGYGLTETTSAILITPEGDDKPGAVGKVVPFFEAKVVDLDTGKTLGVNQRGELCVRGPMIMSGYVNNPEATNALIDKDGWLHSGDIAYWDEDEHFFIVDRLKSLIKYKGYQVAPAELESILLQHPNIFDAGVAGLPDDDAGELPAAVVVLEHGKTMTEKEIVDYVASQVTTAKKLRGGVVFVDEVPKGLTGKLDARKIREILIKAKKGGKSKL

Compound | Potency
Cc1cc(C)cc(OCC(=O)NC(Cc2c[nH]c3ccccc23)C(=O)O)c1 (configuration not stated) | inconclusive: 19 µM [inhibitor, partial curve, poor fit]
O=C(O)/C(=C\c1cccs1)c1ccc(F)cc1 | inconclusive: 21.3 µM [inhibitor, single point]
CCCCN(CCCC)S(=O)(=O)c1c(C)[nH]c(=O)[nH]c1=O | inconclusive: 21.3 µM [inhibitor, partial curve, poor fit]
O=C(Oc1ccc(O)cc1)C12CC3CC(CC(C3)C1)C2 | inconclusive: 30.1 µM [inhibitor, partial curve, poor fit]
CCOC(=O)C1(CCCc2ccccc2)CCN(C(=O)c2cc(C)nn2CC)CC1 | inactive
CC(=O)c1sc2nc(C)cc(C)c2c1N | inactive
COC(=O)c1ccc(CNC(=O)COC(=O)c2ccccc2-c2ccccc2)cc1 | inconclusive: 37.9 µM [inhibitor, single point]
COc1ccc(-n2cc(CN3CCC(OC)CC3)c(-c3cccc(F)c3)n2)cc1 | inconclusive: 21.3 µM [inhibitor, partial curve]
Cc1cccc(Nc2ccccc2C(=O)O)c1C | inconclusive: 15.1 µM [inhibitor, partial curve]
COc1ccccc1-c1ccc(NC2CCCCC2)nn1 | active: 7.57 µM
COc1ccc(-c2cc(-c3nnc(COC(=O)C4CC4)o3)c3ccccc3n2)cc1OC | inconclusive: 13.5 µM [inhibitor, partial curve]
COc1cccc(N2CCc3c(C)nc4ccc(Cl)cc4c32)c1 | inactive
C/C(Cl)=C/Cc1c(C)[nH]c2ccc(C)cc2c1=O | inconclusive: 30.1 µM [inhibitor, partial curve, poor fit]
COCCn1c(C)cc(C2=NNC(=Nc3ccc(Cl)cc3Cl)SC2)c1C | inconclusive: 23.9 µM [inhibitor, partial curve, poor fit]
O=C(CSCc1ccccc1Cl)Nc1ccc2c(c1)OCCO2 | active: 6.75 µM
CCNC(=O)COc1ccc(CC)cc1 | inconclusive: 37.9 µM [inhibitor, partial curve, poor fit]
Cc1ccccc1NC(=O)c1cccc2c(=O)c3c([nH]c12)CCCC3 | inconclusive: 37.9 µM [inhibitor, single point]
CCc1ccc(C(=O)COC(=O)c2n[nH]c3ccccc23)cc1 | active: 3.01 µM
Cc1cc(C(=O)N2CCN(Cc3ccc4c(c3)OCO4)CC2)cs1 | inactive
Cc1ccc(S(=O)(=O)N2CCC(C(=O)NNC(=O)c3ccccc3)CC2)cc1 | inactive
C=CCNC(=O)c1ccc(-c2ccc([N+](=O)[O-])cc2)o1 | inconclusive: 12 µM [inhibitor, partial curve]
O=C(COc1ccc(Br)cc1F)NC1CCN(Cc2ccccc2)CC1 | inactive
O=C1/C(=C/c2ccc(O)cc2)SC(=S)N1CC1CCCO1 (configuration not stated) | inconclusive: 26.9 µM [inhibitor, single point]
CCCCNc1nc2c(c(=O)n(C)c(=O)n2C)n1CC(O)COc1ccccc1C (configuration not stated) | inactive

Compound | Potency
Cc1ccc(C(=O)Nc2nc3n(n2)C(c2ccc(F)cc2)C=C(c2ccccc2)N3)cc1 (configuration not stated) | inconclusive: 42.6 µM [inhibitor, partial curve, poor fit]
CCOc1ccccc1-n1nnc(-c2nc(-c3ccccc3C)no2)c1C | inconclusive: 21.3 µM [inhibitor, partial curve, poor fit]
Cc1ccc2nc(-c3cccc(NC(=O)c4ccc(Br)o4)c3)oc2c1 | active: 2.69 µM
COc1cc(C(=O)NCC(=O)N/N=C/c2cccc(OC(=O)c3ccco3)c2)cc(OC)c1OC | inconclusive: 23.9 µM [inhibitor, partial curve, poor fit]
CCOC(=O)c1cc(-c2csc(Nc3ccccc3Cl)n2)on1 | inconclusive: 19 µM [inhibitor, partial curve]
O=C(CN1C(=O)COc2ccc(S(=O)(=O)N3CCCC3)cc21)N1CCN(c2ccc(Cl)cc2)CC1 | inactive
Cc1ccccc1NC(=O)CSc1nnc(COc2ccc(Cl)cc2)o1 | inactive
COc1cc(CC(=O)NCCc2ccc(OCc3ccccc3)cc2)c([N+](=O)[O-])cc1OC | inactive
COc1cccc(-c2cc(C(=O)Nc3cc(OC)c(OC)c(OC)c3)no2)c1 | inconclusive: 23.9 µM [inhibitor, partial curve, poor fit]
c1ccc(Cn2cc(CSc3ccccc3)nn2)cc1 | inconclusive: 26.9 µM [inhibitor, single point]
O=C(O)Cc1ccc(NC2(c3ccccc3)C(=O)c3ccccc3C2=O)cc1 | inactive
COc1ccc(C(=O)Nc2ccccc2SCc2cc(=O)c3cccc(C)c3[nH]2)cc1 | inactive
Oc1csc(Cc2nc(-c3ccc4ccccc4c3)cs2)n1 | inconclusive: 5.36 µM [inhibitor, partial curve]
Cc1ccc(NC(=O)c2c(C)nn(-c3ccccc3)c2Cl)c(C)c1 | inconclusive: 21.3 µM [inhibitor, partial curve]
Cc1ccc(/C=N/Nc2cc(C)nc(N3CCOCC3)n2)cc1 | active: 2.69 µM
CCOC(=O)N1CCN(C(=O)CSc2nc3c([nH]c4ccccc43)c(=O)n2CCOC)CC1 | inactive
O=C(O)Cc1sc(Nc2ccccc2)nc1-c1ccccc1 | inconclusive: 15.1 µM [inhibitor, partial curve]
CC(NC(=O)c1ccccc1)C(=O)N/N=C/c1cccc([N+](=O)[O-])c1 (configuration not stated) | inconclusive: 26.9 µM [inhibitor, partial curve]
C=CCOc1cccc(CNc2ccc3[nH]c(=O)[nH]c3c2)c1 | inconclusive: 26.9 µM [inhibitor, single point]
CCC(C)c1ccc(NC(=S)NCc2ccccc2OC)cc1 (configuration not stated) | inactive
Cc1cc(NC(=S)Nc2ccc(C)c(Cl)c2)n[nH]1 | active: 16.9 µM
COc1ccc(-c2cc(=NC(CC(C)C)C(=O)O)c3cc(C)ccc3o2)cc1 (configuration not stated) | active: 0.849 µM
COc1ccc(CCNC(=O)c2cc(COc3c(C)cccc3C)on2)c(OC)c1 | inconclusive: 30.1 µM [inhibitor, single point]
